Data as given in PMC12136788.
The other results are listed elsewhere or left out.

T1: UNK ZnF1-3 (human, UniProt Q9C0B0 31-174)
T1 sequence: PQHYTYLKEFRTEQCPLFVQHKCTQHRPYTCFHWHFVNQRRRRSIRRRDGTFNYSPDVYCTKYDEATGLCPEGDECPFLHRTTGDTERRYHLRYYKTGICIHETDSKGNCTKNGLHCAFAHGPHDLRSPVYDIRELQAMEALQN

B1: chrX:71549400:71549401:+_ENSMUSG00000019087_ENSMUST00000019231|mus_hu|mus_mus_mus_hu_False|28_48 (ssRNA)
RNA: GGGAGUUCUACAGUCCGACGAUCGCAGUAGGAAGAGGGAAGCUCUUCAGUCCAGUGCGCUGCAGGGUGGGAAAGCAACAACACGGAACCAAUACUCCCCUCAACCCUCUCAGGUGUACAGGGUCACACAAUCUGGGUCAAAGACAACAGAGGAUUGAGCAUCA
B2: chr8:121872745:121872746:+_ENSMUSG00000031839_ENSMUST00000034300|mus_mus|FALSE|FALSE (ssRNA)
RNA: GGGAGUUCUACAGUCCGACGAUCCUUUGUGGGGACAGUGACAUAGAUUGCCUUCUAAGUCAUCAAAACUGGCUUUGAGGCUAAGCCUCCAGACACCAGAAUCCUGAAUGUAAAUCUGUCUUCUUUAAUCAAUAAUAGAACUCACAACAGAGGAUUGAGCAUCA
B3: chr3:179287964:179287965:+_ENSG00000136518_ENST00000429709|hu_hu|hu_hu_hu_mus_True|18_28 (ssRNA)
RNA: GGGAGUUCUACAGUCCGACGAUCCUUGAGUGGUGAGAUGGCCUCCAUGUUCUCCCUGGGCACGCGGAGGGCAUUGGUGUCUAUGUAGUAGGUGGGCCCGCCCUGCUUGCCUUUAUCGCCAUCUAUUUCCAUCAUUGUACUUCCCAACAGAGGAUUGAGCAUCA
B4: chr11:85347198:85347199:+_ENSG00000171204_ENST00000358867|hu_hu|FALSE|FALSE (ssRNA)
RNA: GGGAGUUCUACAGUCCGACGAUCUUUCUCAAGUGUCUCUUCAAAUACUGCAUAAUGGUAUAGACCAUUUAAUAUUCCAAACAUAAUCUGAAAGACUAGAGGAAUCGCCAUUAAUUUCAUUUGUGUUUGACAAAGCGUCAUCCACAACAGAGGAUUGAGCAUCA
B5: chrX:71549400:71549401:+_ENSMUSG00000019087_ENSMUST00000019231|mus_hu|mus_mus_mus_hu_False|8_18 (ssRNA)
RNA: GGGAGUUCUACAGUCCGACGAUCGCAGUAGGAAGAGGGAAGCUCUUCAGUCCAGUGCGCUGCAGGGUGGGAAAGCAACAACACGGACACCGUCCCACCCUCAACCCCCCCACUGGCAUGUCACACAAUCUGGGUCAUCAAAGACAACAGAGGAUUGAGCAUCA
B6: chr8:41367971:41367972:+_ENSG00000147533_ENST00000520817|hu_hu|FALSE|FALSE (ssRNA)
RNA: GGGAGUUCUACAGUCCGACGAUCAAUAUACAGUAUUAUUCCUAUCAAAUUUUUUUCUCAUAAGUUAUAUUUAUAACAAAACUAUAAUUAAAAUAUUUUUUAUACCUGCUUAUUCCAUAUCCAGGGACACAGCGGGAACAUUUACAACAGAGGAUUGAGCAUCA
B7: 41243356_41243476_1275_CDS_ENSMUSG00000028436_ENSMUST00000030145|mouse|control|control (ssRNA)
RNA: GGGAGUUCUACAGUCCGACGAUCCCUGGAGCAGACAGACUUGACGUUGUACGAUGGCUGCCGUGGAUCCAAGAAGGAGACAUGCGCUUGAGAGCCCACUGCAUACACUGACCACUCACUACCAUAGGCCAGACACACGUUUUCCAACAGAGGAUUGAGCAUCA
B8: 16965487_16965607_2015_CDS_ENSMUSG00000020580_ENSMUST00000020904|mouse|control|control (ssRNA)
RNA: GGGAGUUCUACAGUCCGACGAUCGAUAAAUUCCUUUUCAAGUUUUAACUUGGCAGUCUCAAGCAGGCAGUUUUUAUCUUGUAGAUCUCUAUUGUUAGAUUCCAGCUGCUGAAUCUGUUUGGAACUUUCUGCCUGGGUUUUUCUCAACAGAGGAUUGAGCAUCA
B9: chrX:71549762:71549763:+_ENSMUSG00000019087_ENSMUST00000019231|mus_mus|mus_mus_mus_hu_False|18_78 (ssRNA)
RNA: GGGAGUUCUACAGUCCGACGAUCAAACCCGUGUACUUCUUAUUGUUAGCACAACAUUCCCCCCCAACGAUAACGACAGCCAAGCAGGACAGACAGUUAAGUAGUACUUCCACACUCCGCAAAUUCAGGAGCCCUAUAACCUUACAACAGAGGAUUGAGCAUCA
B10: chr8:104447970:104447971:+_ENSG00000164934_ENST00000297579|hu_hu|hu_hu_hu_mus_False|48_48 (ssRNA)
RNA: GGGAGUUCUACAGUCCGACGAUCAUACACUUCCCUGCUUCGGCUCUUGUCCACAGGAAAGAUUCUAAUAGACUUAUCAAAGCUGGCAGACACAAACUCCUUCCCAGUGGGAGAGUAGUCCACAUCAAGUACUGCAGACACGUGCAACAGAGGAUUGAGCAUCA
B11: chr2:202488911:202488912:-_ENSG00000155755_ENST00000286196|hu_mus|hu_hu_hu_mus_False|1_88 (ssRNA)
RNA: GGGAGUUCUACAGUCCGACGAUCAUUGAAACAUUUUUCAUAAUCUCAGAGAUGUUUUCAGCAUUAUGUAACAAAAGCUCAAUUGUAAAUACAUGUAUCUUAUAAAAAUACACUUAAAAACACGAGUGGGGAGCGCACAAAUACCAACAGAGGAUUGAGCAUCA
B12: 76452574_76459438_1178_CDS_ENSMUSG00000024563_ENSMUST00000168423|mouse|control|control (ssRNA)
RNA: GGGAGUUCUACAGUCCGACGAUCAUCCAAGCUGUGAUUAACAGGAGAGAGAGUAGUAGGAGACAGUUCAGCCGGAGAGCCUGUGUCCAUACUUUGGUUCAACUGUUGGUCACUUGUUUCUCCAUCUUCACUGAUAUAUCCAGGCAACAGAGGAUUGAGCAUCA
B13: chr11:68582865:68582866:-_ENSG00000110090_ENST00000265641|hu_hu|FALSE|FALSE (ssRNA)
RNA: GGGAGUUCUACAGUCCGACGAUCCUUGAAUCUGAUGAACUUCUUUUUCCAGGAAUGAAGUCCAGAGAGAUAGAUUUGUCUAAGAGCUUCAUGGCUCAGCCGCAGGUCAAUCCCGUCCGGAGUGACCGUGAACUGAAAGGCCACCAACAGAGGAUUGAGCAUCA
B14: chr2:191069868:191069869:-_ENSG00000198130_ENST00000359678|hu_hu|FALSE|FALSE (ssRNA)
RNA: GGGAGUUCUACAGUCCGACGAUCUAUAAAAACAGGCAGCAGGCUGGAUUUGGCCCACAUGCUGUAGAUUGCCAACCCAUGCUACAAAAUAUACCUUAAAAGCCUGUCACCUCAAAAUUUCAAAUCACUGCUUCCCAAAGACUUCAACAGAGGAUUGAGCAUCA
B15: chr11:2905015:2905016:-_ENSG00000129757_ENST00000380725|hu_hu|FALSE|FALSE (ssRNA)
RNA: GGGAGUUCUACAGUCCGACGAUCUUCAAAAUUUAAAAACAAAACCGAACGCUGCUCUGCGGCAGCCGCCGCCGGUUGCUGCUACAUGAACGGUCCCAGCCGAGGCCCAGCGCCCUUCCAACGUCCGCUGCCCCGGCAGGUUCCCAACAGAGGAUUGAGCAUCA
B16: chr10:33214929:33214930:-_ENSG00000150093_ENST00000302278|hu_hu|hu_hu_hu_mus_True|28_108 (ssRNA)
RNA: GGGAGUUCUACAGUCCGACGAUCAACAAGUUCAUUAAAAAACUCUCCUCUGUCAGUAAGACUAAGCACAUUUUUGUAGCUAAAUGGGCUGGUGCAGUUUUGUUCACUUGUGCAAGGAUUUCUUAGCUUUGCUGGGGUUGUGCUCAACAGAGGAUUGAGCAUCA
B17: chr12:39763582:39763583:-_ENSG00000139116_ENST00000544797|hu_mus|hu_hu_hu_mus_False|48_68 (ssRNA)
RNA: GGGAGUUCUACAGUCCGACGAUCCUCUAGGAACUGGGCAUUCACUUUGAAUUCAGGAGGGGGCAGCCCAUUUUUAAUCGCUGAGGUUUUUUUUUCUUCAAUACUCUUGAACAGGUGUCUAACAGCACGAGAGAUGAUGCCCUGCAACAGAGGAUUGAGCAUCA
B18: chr12:72996743:72996744:+_ENSMUSG00000034574_ENSMUST00000085299|mus_mus|FALSE|FALSE (ssRNA)
RNA: GGGAGUUCUACAGUCCGACGAUCAUAAAUGAAAUCCCCCGGCCGCCUCUCUUCCGUGGGGCCAUGGUUGAAUUCUCUCCUAUUUCUUGAUAUUUCUAUACUCUACUGGCCCCGGAGCUCCGGGAAGCAGCAGGAGGGCGCGCCCAACAGAGGAUUGAGCAUCA
B19: chr7:140404665:140404666:+_ENSG00000090266_ENST00000247866|hu_hu|hu_hu_hu_mus_False|8_38 (ssRNA)
RNA: GGGAGUUCUACAGUCCGACGAUCUGCUCCUACUCGUCCAGAGAGUUUACAGUGUCAGUCCUCGUCAUCAGGAGGGAUUCCCAGUUCUUCAUCUGUCCACUGGGAAGGAUCUGGAUAUGAAAAGUGACCCAGCACCUCAUCCGACAACAGAGGAUUGAGCAUCA
B20: 107340845_107340965_108_CDS_ENSMUSG00000020720_ENSMUST00000021063|mouse|control|control (ssRNA)
RNA: GGGAGUUCUACAGUCCGACGAUCGUCCACCGUGGCGCUGUAGUCCACUUCCAUCUUCACAAUGCGCCCAUCGGCCCGCUCCGAGCCACCGUCCGCCAUGGUCCCUGCCUAAGAGUCCCCUGCUGUACCCCAGGUUCGGCCACCCAACAGAGGAUUGAGCAUCA
B21: 92120666_92120786_3393_CDS_ENSG00000127980_ENST00000248633|human|control|control (ssRNA)
RNA: GGGAGUUCUACAGUCCGACGAUCAUCUGGAAGGAUCUCGGACAUCUCUAAAGAAACAAGGGACUGAUCUAAGCCACAUUCUCCAUCUCCAGCUGAAUCGUCAGAGCCACUGCUAUGGUUAAGAAAGACCAUUGAAGACAGACUCAACAGAGGAUUGAGCAUCA
B22: chr1:244870462:244870463:+_ENSG00000121644_ENST00000302550|hu_mus|motif|central (ssRNA)
RNA: GGGAGUUCUACAGUCCGACGAUCAUGAAAUUUACUCAAAGACAUGUAUCUUCACACAGAGAAUGUGACUCUCACACGGAUCACGUAUCUAAAGCUGCAGUCAGUACCUUGGAUGUUCCUAUGUUGUAUCCACUACUUACACAGCAACAGAGGAUUGAGCAUCA

Target: T1, UNK ZnF1-3
Experiment: nsRBNS (natural sequence RNA bind-n-seq); RBNS binding buffer (assumed for nsRBNS): 25 mM Tris pH 7.5, 150 mM KCl, 3 mM MgCl2, 0.01% Triton X-100, 500 ug/ml BSA, 20 U/ml SUPERase-In, 4 C; UNK is unkempt and MSI1 is Musashi-1; names of the RNAs are library labels; protein concentration not given here; high values mean tight binding

| Binder | binding signal |
| --- | --- |
| B1 | 0.792 enrichment R |
| B2 | 1.06 enrichment R |
| B3 | 0.493 enrichment R |
| B4 | 0.837 enrichment R |
| B5 | 1.65 enrichment R |
| B6 | 0.915 enrichment R |
| B7 | 1.24 enrichment R |
| B8 | 0.321 enrichment R |
| B9 | 1.78 enrichment R |
| B10 | 1.05 enrichment R |
| B11 | 1.24 enrichment R |
| B12 | 1.18 enrichment R |
| B13 | 0.441 enrichment R |
| B14 | 1.68 enrichment R |
| B15 | 0.975 enrichment R |
| B16 | 0.992 enrichment R |
| B17 | 1.52 enrichment R |
| B18 | 0.467 enrichment R |
| B19 | 1.35 enrichment R |
| B20 | 0.908 enrichment R |
| B21 | 1.27 enrichment R |
| B22 | 0.518 enrichment R |
